Laboratory results from PubChem BioAssay AID1347165 (National Center for Advancing Translational Sciences (NCATS), 2019).
Screen size: about 220,000 compounds; about 5,700 (2.6%) were called active. Inconclusive results, whose numbers are uncertain, are shown with a selection of clear calls. Calls come from the whole dose curve; as a rule, active = well fitted inhibition curve with a large enough effect; inconclusive = small, poorly fitted or top-dose-only effect; inactive = no such curve, though single readings can be large or run the other way. Where the call is inconclusive, the potency comes from a doubtful curve fit.

target: Lysine-specific demethylase 5B (Homo sapiens) (UniProt Q9UGL1); test: Primary screen for KDM5B Histone Demethylases FDH-coupled qHTS; settings: FDH-coupled NADH fluorescence (FDH is formaldehyde dehydrogenase); activity change, negative = inhibition: at 57.7 µM (top of the series) unless noted; note: nearly all actives have a fitted effect of over 70% in size; for activity change, negative = inhibition: 0% is about no effect
Chain of UniProt Q9UGL1 (Q9UGL1 whole entry, looked up): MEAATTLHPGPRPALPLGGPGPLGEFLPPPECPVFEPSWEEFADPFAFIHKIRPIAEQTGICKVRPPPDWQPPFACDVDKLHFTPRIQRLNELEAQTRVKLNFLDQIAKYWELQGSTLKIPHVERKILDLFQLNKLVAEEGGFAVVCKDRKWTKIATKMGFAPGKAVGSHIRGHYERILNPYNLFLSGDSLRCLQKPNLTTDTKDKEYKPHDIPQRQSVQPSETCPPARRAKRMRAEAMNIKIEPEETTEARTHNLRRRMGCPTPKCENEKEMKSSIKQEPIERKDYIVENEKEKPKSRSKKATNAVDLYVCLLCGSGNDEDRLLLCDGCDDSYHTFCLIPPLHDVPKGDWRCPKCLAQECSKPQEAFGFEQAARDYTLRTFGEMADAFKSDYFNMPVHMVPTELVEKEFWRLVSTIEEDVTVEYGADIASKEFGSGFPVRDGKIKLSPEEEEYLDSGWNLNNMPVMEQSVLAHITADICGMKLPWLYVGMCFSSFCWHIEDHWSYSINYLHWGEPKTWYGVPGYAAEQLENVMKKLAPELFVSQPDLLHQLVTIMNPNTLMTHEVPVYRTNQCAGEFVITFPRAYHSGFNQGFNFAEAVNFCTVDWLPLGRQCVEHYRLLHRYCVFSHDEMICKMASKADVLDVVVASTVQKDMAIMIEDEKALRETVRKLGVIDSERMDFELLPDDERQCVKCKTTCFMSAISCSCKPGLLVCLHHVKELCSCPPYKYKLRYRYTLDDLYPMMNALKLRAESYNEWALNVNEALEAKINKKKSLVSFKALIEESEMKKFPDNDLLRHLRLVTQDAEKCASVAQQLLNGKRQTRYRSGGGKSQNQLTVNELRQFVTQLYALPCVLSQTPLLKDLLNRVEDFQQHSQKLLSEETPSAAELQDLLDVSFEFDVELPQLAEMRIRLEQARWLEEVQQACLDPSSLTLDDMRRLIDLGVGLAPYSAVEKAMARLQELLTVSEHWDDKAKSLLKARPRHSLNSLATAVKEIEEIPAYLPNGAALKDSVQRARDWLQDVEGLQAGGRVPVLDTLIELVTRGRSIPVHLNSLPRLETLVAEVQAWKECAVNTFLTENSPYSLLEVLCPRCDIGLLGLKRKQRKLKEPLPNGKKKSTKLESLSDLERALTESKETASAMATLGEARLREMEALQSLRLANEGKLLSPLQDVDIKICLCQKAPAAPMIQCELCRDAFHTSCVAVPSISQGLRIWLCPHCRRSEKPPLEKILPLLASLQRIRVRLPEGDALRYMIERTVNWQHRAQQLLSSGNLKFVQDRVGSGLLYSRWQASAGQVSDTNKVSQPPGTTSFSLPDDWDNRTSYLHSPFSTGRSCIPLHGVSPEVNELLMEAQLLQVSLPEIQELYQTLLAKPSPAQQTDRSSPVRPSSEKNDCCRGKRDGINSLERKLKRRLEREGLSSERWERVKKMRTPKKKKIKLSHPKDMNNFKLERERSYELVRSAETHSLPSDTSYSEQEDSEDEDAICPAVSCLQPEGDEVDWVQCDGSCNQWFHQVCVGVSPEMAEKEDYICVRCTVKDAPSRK
Outline: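 Compound dilutions met 200 nM (final) KDM5BΔAP for 10 min at room temperature before substrate addition. The substrate mix held 12.5 µM H3K4me3 with cofactors 25 µM α-ketoglutarate and 50 µM Fe²⁺. NADH signal gain over 30 min defined activity.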
Potency is the fitted concentration of half-maximal effect; tags give direction and shape of the fitted curve.

SMILES	Potency	activity change, negative = inhibition
COc1cc(-c2ccno2)ccc1S(=O)(=O)N1CCN(c2ccccc2F)CC1	inconclusive: 31.6 µM [inhibitor, single point]	–
CC12CC3CC(C)(C1)CC(NCc1ccccc1OCc1ccc(Cl)cc1Cl)(C3)C2	inconclusive: 39.8 µM [inhibitor, single point]	–
CN(C)C[C@@H]1CN(Cc2ccccc2)C[C@H]1NC(=O)c1nccn1C	inconclusive: 28.2 µM [inhibitor, partial curve, poor fit]	–
COCC1CN(C)CC12CCN(C(=O)C1CCOCC1)CC2 (stereo not drawn)	inconclusive: 31.6 µM [inhibitor, partial curve, poor fit]	–
COc1ccc(CCC(=O)N2CCCC(Cc3noc(-c4ccccc4)n3)C2)cc1 (stereo not drawn)	–	inactive: 0.473%
CCc1ccc(CN2CCC3(Cc4ccccc4CNC3=O)C2)cc1 (stereo not drawn)	–	inactive: 4.42% [at 149 µM]
Cc1ccc(CN2CCN(Cc3c[nH]c4ccccc34)CC2)cc1	inconclusive: 39.8 µM [inhibitor, partial curve, poor fit]	–
O=C(Nc1ccccc1C(=O)N/N=C/c1ccc(O)cc1)c1ccccc1	inconclusive: 10 µM [inhibitor, partial curve, poor fit]	–
COc1ccc(CN2C(=O)CO[C@H]3CN(C(C)C)C[C@H]32)cc1	inconclusive: 35.5 µM [inhibitor, single point]	–
O=C(NCc1cccnc1)c1ccccc1NS(=O)(=O)c1ccc2[nH]c(=O)[nH]c2c1	inconclusive: 22.4 µM [inhibitor, single point]	–
COCc1ccc(CNC(=O)c2cccc(C#N)c2)cc1	–	inactive: 18.5%
FC(F)(F)c1cccc(N/N=C/c2ccccc2Br)c1	inconclusive: 39.8 µM [inhibitor, single point]	–
CCCNC(=O)NC(=O)COC(=O)c1cc(-c2ccco2)nc2ccccc12	–	inactive: -29.2%
CNC(=O)c1cccc(CNC(=O)c2nccnc2N)c1	inconclusive: 25.1 µM [inhibitor, partial curve, poor fit]	–
COc1ccc(NC2CCCN(CC(=O)Nc3ccc(C)cn3)C2)cc1 (stereo not drawn)	active: 15.8 µM	–
CCCOc1cccc(C(=O)Nc2ccc3oc(-c4cccnc4)nc3c2)c1	inconclusive: 39.8 µM [inhibitor, single point]	–
CCOC(=O)c1cc(S(=O)(=O)N2CCN(c3cc(C)ccc3C)CC2)[nH]n1	inconclusive: 17.8 µM [inhibitor, partial curve, poor fit]	–
COCCCNC(=O)c1ccc(-c2nc3ccccc3nc2-c2ccccc2)cc1	inconclusive: 28.2 µM [inhibitor, partial curve, poor fit]	–
CC(C)Cc1ccc(C(C)NC(=O)c2ccc(CN3CCCC3)cc2)cc1 (stereo not drawn)	–	inactive: -10.6%
O=C(Cn1ccc2cc(S(=O)(=O)N3CCCCC3)ccc21)NCCc1ccc(Cl)cc1	–	inconclusive: -30.8% [inhibitor]
COc1ccc2oc(=O)c(-c3nc4ccccc4s3)cc2c1	inconclusive: 39.8 µM [inhibitor, single point]	–
Cc1ccc(-c2nn3c(=O)cc(CNC(=O)COc4ccc(C(C)(C)C)cc4)nc3s2)cc1	–	inactive: 18.1%

SMILES	Potency	activity change, negative = inhibition
COC(=O)C1=CN(c2ccc(F)cc2)C=C(C(=O)OC)C1c1ccc(O)cc1	inconclusive: 28.2 µM [inhibitor, partial curve, poor fit]	–
COC(=O)c1sc(NC(=O)c2cc3nc(-c4ccc(Br)cc4)cc(C(F)(F)F)n3n2)c(C(=O)OC)c1C	inconclusive: 31.6 µM [inhibitor, single point]	–
O=C(O)Cc1sc(Nc2ccccc2Cl)nc1-c1ccccc1	inconclusive: 14.1 µM [inhibitor, partial curve, poor fit]	–
Cc1cc2cc(NS(=O)(=O)c3cc(F)ccc3F)ccc2[nH]1	–	inactive: 16.3%
Cc1ccc(OCC(=O)Nc2ccccc2C(=O)OCc2cc(=O)n3ccsc3n2)cc1C	inconclusive: 31.6 µM [inhibitor, single point]	–
O=C(NC1CCN(c2cc(-c3ccc(F)cc3)[nH]n2)C1)c1cccc(Cl)c1 (stereo not drawn)	inconclusive: 5.01 µM [inhibitor, full curve, poor fit]	–
CCOC(=O)CSc1nc2c(c(=O)[nH]c(=O)n2C)n1CC	inconclusive: 14.1 µM [inhibitor, partial curve, poor fit]	–
COC(=O)[C@]12C[C@H](CC(=O)NCc3cccc4ccccc34)C(=O)N(Cc3cccc4ccccc34)C1=C[C@H](C(C)(C)C)O[C@@H]2C	inconclusive: 31.6 µM [inhibitor, partial curve, poor fit]	–
O=C(CCN1c2ccccc2Sc2ccccc21)N1CCCC(c2nc(C3CCOCC3)no2)C1 (stereo not drawn)	active: 25.1 µM	–
CC(=O)c1cccc(OCC(O)CNCCOc2ccc(C)cc2)c1 (stereo not drawn)	inconclusive: 22.4 µM [inhibitor, partial curve, poor fit]	–
Cc1cc(C(=O)N2CCC(NC(=O)C3CCCCC3)CC2)c2ccccc2n1	–	inactive: -7.6%
Cc1ccc(N(C)S(=O)(=O)c2c(-c3ccccc3)csc2C(=O)NCc2ccco2)cc1	–	inactive: 0.185%
O=c1c2nc(Nc3cccnc3)ccc2ncn1Cc1ccccc1	–	inactive: -11.7% [at 86.2 µM]
CN1CCN(c2nc3c(c(=O)[nH]2)CCN(Cc2ccc4[nH]ccc4c2)CC3)CC1	–	inactive: -0.759%
COc1cccc(N2CC(NC(=O)c3ccc4c(c3)OCO4)CC2=O)c1 (stereo not drawn)	–	inconclusive: -33.4% [inhibitor]
C[C@@H]1C(=O)O[C@H]2[C@H]1CC[C@@]1(C)Cc3sc(NC(=O)c4ccncc4)nc3[C@@H](C)[C@H]21	inconclusive: 35.5 µM [inhibitor, single point]	–
O=C1COCCN1C1CCN(Cc2cccc3ccccc23)CC1	inactive	–
COc1ccc(Nc2cc(C)nc(N3CCN(C(=O)Nc4cc(C)ccc4C)CC3)n2)cc1	inconclusive: 25.1 µM [inhibitor, single point]	–
O=C(CSc1nc(C2CC2)n(-c2ccccc2)n1)Nc1ccccc1	–	inactive: 13.1%
O=C1NC(C(=O)O)=CC(c2ccccc2Cl)N1 (stereo not drawn)	–	inactive: -10.7%
O=C(NCc1ccccc1F)c1ccc2c(c1)CN(Cc1cccc(F)c1F)CCO2	inconclusive: 31.6 µM [inhibitor, single point]	–
